# Results: PMC7819943, “Rice protein-binding microarrays: a tool to detect cis-acting elements near promoter regions in rice”
# The list shows a part of the results.
# Target: T1, OsWOX13 (Oryza sativa, UniProt Q5QMM3 1-267)
# T1 sequence: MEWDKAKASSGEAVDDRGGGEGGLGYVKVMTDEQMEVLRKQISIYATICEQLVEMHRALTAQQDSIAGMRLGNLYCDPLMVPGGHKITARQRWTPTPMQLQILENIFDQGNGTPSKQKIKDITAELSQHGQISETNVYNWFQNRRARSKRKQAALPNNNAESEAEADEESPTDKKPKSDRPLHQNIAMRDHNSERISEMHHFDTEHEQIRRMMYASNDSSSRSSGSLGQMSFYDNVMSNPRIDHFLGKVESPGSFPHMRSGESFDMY
# Assay: protein-binding microarray (RPBM); PBS, 2% BSA, 51.3 ng/ul salmon testes DNA, 50 uM zinc acetate, 200 nM TF, 25 C, 1 h; high values mean tight binding
# Details: protein: recombinant; tags: N-terminal polyhistidine and DsRed monomer fusion (pET32a); label: CyDye5-dUTP incorporated in the synthesized complementary strand; 3' TTTTT single-stranded linker to array surface; dsDNA, one strand shown
# Method in brief: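 The binding signal is fluorescence intensity per feature, in arbitrary units, read on an Axon 4000B scanner. Polyhistidine- and DsRed-tagged transcription factors (N-terminal fusions) from E. coli BL21-CodonPlus were purified on Ni–NTA and applied at 200 nM for 1 h at 25 °C to a double-stranded, BSA-blocked custom Agilent array in buffer with 50 µM zinc acetate.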
row,Sequence,binding signal
1,TAATAATAAAACAAATTACAGATTCTACCTATAAACTGCGCGGAGTCACCTAGTGCAG,7190 fluorescence intensity (a.u.)
2,TAGATTGATTTCTAATTTACAGATTAATGCGCTAGTATTTCGGAGTCACCTAGTGCAG,51100 fluorescence intensity (a.u.)
3,ATATTTTAATTGGATCATCATCGTCGTTAGTCCGTCCTCACGGAGTCACCTAGTGCAG,14900 fluorescence intensity (a.u.)
4,CTATCAATAATTAAAATGTGTGCCTTTTCACTATCTTTACCGGAGTCACCTAGTGCAG,12900 fluorescence intensity (a.u.)
5,AAGATTTAATTGTAATGAATCTAACAACATAATTTGTTCACGGAGTCACCTAGTGCAG,32800 fluorescence intensity (a.u.)
6,TTTAGTGAACGATTTGATTGTTGGGGTGAGACAGGCCCAGCGGAGTCACCTAGTGCAG,5530 fluorescence intensity (a.u.)
7,CACTACAGCCTGAAGCTTGATTGGCAGATCATCTAAAATACGGAGTCACCTAGTGCAG,8480 fluorescence intensity (a.u.)
8,TGGCCAAATTCTGTCAATTGCATTTGATGGAGCTGGGCTTCGGAGTCACCTAGTGCAG,11200 fluorescence intensity (a.u.)
9,ATGCACAATTTAAAACTAATCATGCATTAATGAAACTGTCCGGAGTCACCTAGTGCAG,7400 fluorescence intensity (a.u.)
10,GAAAGTGTGATTGATATTGATTCCTCTTAGCTAGGCTGCACGGAGTCACCTAGTGCAG,43500 fluorescence intensity (a.u.)
11,TCTTTTAATTTTGTCATGGCTAAATTACTTGGCAGATGAACGGAGTCACCTAGTGCAG,11000 fluorescence intensity (a.u.)
12,ACATAATCACAAAATTTTACATTCAACTTACCCGATAATCCGGAGTCACCTAGTGCAG,7740 fluorescence intensity (a.u.)
13,GCTAAACGTGAATTGTTTCAGTCCAGAACCAGACCATTGGCGGAGTCACCTAGTGCAG,3390 fluorescence intensity (a.u.)
14,AATGCTTAATTATGTAAATTTGCAACCTATATATAAGACACGGAGTCACCTAGTGCAG,25100 fluorescence intensity (a.u.)
15,GCTGATGACTTTTCTCCCGGTTTCATATTTTCTTTTAGAACGGAGTCACCTAGTGCAG,8420 fluorescence intensity (a.u.)
16,ATATATATATATATATATATATATATATATATACACAAGACGGAGTCACCTAGTGCAG,18900 fluorescence intensity (a.u.)
17,GATGATTGATTGGGTTGGTTGGAACGTGCGATGGAATGATCGGAGTCACCTAGTGCAG,65400 fluorescence intensity (a.u.)
18,TAAACTACTTAATTAGCCATGTATAACATGTTAGATGTGTCGGAGTCACCTAGTGCAG,5140 fluorescence intensity (a.u.)
19,CGGCACGAGCTGAGCTGATTGATCGGTGCATATGCATTCACGGAGTCACCTAGTGCAG,5710 fluorescence intensity (a.u.)
20,AAGTGATTGAAATTTAATTCATGATCCTAAACCATACAACCGGAGTCACCTAGTGCAG,53200 fluorescence intensity (a.u.)
21,AGTAATTATTAATTCTTTTCCTATTATTTGATTCATTGTTCGGAGTCACCTAGTGCAG,29800 fluorescence intensity (a.u.)

row,Sequence,binding signal
1,TAGTATTAGATGGATTGTTAAACTTTTAGGGCCAGTTCGCCGGAGTCACCTAGTGCAG,4800 fluorescence intensity (a.u.)
2,GGGAACAAATTTTAGATAAGCCTGGATTGGAAAGAGAGTGCGGAGTCACCTAGTGCAG,4130 fluorescence intensity (a.u.)
3,CCCTCTATAATTAGTGACTTGTAACCTCTTCTTCCCTTCCCGGAGTCACCTAGTGCAG,12300 fluorescence intensity (a.u.)
4,TGTTCATTTTATTAATCATGTGTTTTAAACAAGCCCCTTACGGAGTCACCTAGTGCAG,6940 fluorescence intensity (a.u.)
5,CCAAATTTACAGCTATATAACTCGCCTCCTCGATCTTCTCCGGAGTCACCTAGTGCAG,7870 fluorescence intensity (a.u.)
6,TCCTAATTTCACCATTATCTTGAAGCTCCACTTGCTACCACGGAGTCACCTAGTGCAG,13200 fluorescence intensity (a.u.)
7,TTCTGCTGCACCTAATTAATTAAATTTCCCCGCTATAATTCGGAGTCACCTAGTGCAG,11300 fluorescence intensity (a.u.)
8,CAAGTAAATTGGAACACCAAAATGGAGTTGCGGCGGCCGACGGAGTCACCTAGTGCAG,3610 fluorescence intensity (a.u.)
9,TGATAATTTTCGATGGTCATCGGTGAAACTAAAAGGTTCCCGGAGTCACCTAGTGCAG,4960 fluorescence intensity (a.u.)
10,AAATTTTCTTTAATTGATCCGACTCCACCAAGAACACAACCGGAGTCACCTAGTGCAG,14100 fluorescence intensity (a.u.)
11,TTTGATAGTACTAAACAACATTAGGGGACCCACCTGTCAGCGGAGTCACCTAGTGCAG,4480 fluorescence intensity (a.u.)
12,TTCTTGACGAGATTGGGCGCATGACAGTGAGCATTTTCCACGGAGTCACCTAGTGCAG,16500 fluorescence intensity (a.u.)
13,GGAATCTGGGAGGTGGGTGGGCCCCACGGCGGAGACTCCGCGGAGTCACCTAGTGCAG,3490 fluorescence intensity (a.u.)
14,CTATAAATTTAGCCAAACTTAACAAAATTTGACTAGAAAACGGAGTCACCTAGTGCAG,6080 fluorescence intensity (a.u.)
15,TTTTACGTGACCTAATTGAATGGAGATACTATGGAAGGAACGGAGTCACCTAGTGCAG,15800 fluorescence intensity (a.u.)
16,TATGACTAATGCTTGATTCGCAATAGATGAATCACCAAAACGGAGTCACCTAGTGCAG,4150 fluorescence intensity (a.u.)
17,TCTCTTATGATTTGTTTGTCTGATACTCTGTCTGATCGGTCGGAGTCACCTAGTGCAG,14400 fluorescence intensity (a.u.)
18,TTAATTGGATATATGATGTTGCAAATTTGCCTATTCAGAACGGAGTCACCTAGTGCAG,27000 fluorescence intensity (a.u.)
19,GTCATATAACCGATGATTGAGGGAGTAATATATATAAATACGGAGTCACCTAGTGCAG,5050 fluorescence intensity (a.u.)
20,CATTTAATTTACAAACTATAAACGCACAAATATAAACAAACGGAGTCACCTAGTGCAG,6690 fluorescence intensity (a.u.)
21,CATGATTTTACAAGATCAGAGATCTATTATATCTAGTCTTCGGAGTCACCTAGTGCAG,14900 fluorescence intensity (a.u.)

row,Sequence,binding signal
1,TGATTTGATTTTCAGTTTTGCACCATGCGATCGATCGAGACGGAGTCACCTAGTGCAG,4320 fluorescence intensity (a.u.)
2,CGTTTTGTTAAATTAAAATAAATTAACAAGCCCAATTGCACGGAGTCACCTAGTGCAG,22300 fluorescence intensity (a.u.)
3,CTTCCAAATTGATGAAGATAGCAGTACTTCAGAAGCTTCCCGGAGTCACCTAGTGCAG,22200 fluorescence intensity (a.u.)
4,GTTGCCAATTATTGTAGCTCACCAAACTACCCATTGTCCACGGAGTCACCTAGTGCAG,11000 fluorescence intensity (a.u.)
5,AACTAAAATTACATATGTAAATTTAGTTGATATGACATGTCGGAGTCACCTAGTGCAG,24600 fluorescence intensity (a.u.)
6,AATTAAAACTTAATTAATCACATGTTATTACTACCTCGTTCGGAGTCACCTAGTGCAG,15500 fluorescence intensity (a.u.)
7,TGTGTGTGTTTTAATTAATTAACATTTATATAAATATGAACGGAGTCACCTAGTGCAG,14100 fluorescence intensity (a.u.)
8,ATCCATAATCAATACTAATAGGGTTTTCATTGACCAGATACGGAGTCACCTAGTGCAG,9650 fluorescence intensity (a.u.)
9,AAGAGTGACACTGCCAATTATTTAAGAACGGAGGGAGTACCGGAGTCACCTAGTGCAG,4900 fluorescence intensity (a.u.)
10,ATCTGCTAATTCAATGTTACTGGACTCTATTTATTCAGCCCGGAGTCACCTAGTGCAG,3190 fluorescence intensity (a.u.)
11,GCTCTCACAGTGATGGACAGTCCATAGAATCCCATAAAAGCGGAGTCACCTAGTGCAG,3210 fluorescence intensity (a.u.)
12,AGACTTTCAGTTAGTTTATTGACATAAATTACCGCCATAACGGAGTCACCTAGTGCAG,12900 fluorescence intensity (a.u.)
13,CTTAATTTGAGTCAACTTAAATTTTAGTTTCTACATGATGCGGAGTCACCTAGTGCAG,46400 fluorescence intensity (a.u.)
14,ACGATGATTACCTGCTCGTTAAGAAAAGCTTTCTACTTGTCGGAGTCACCTAGTGCAG,22600 fluorescence intensity (a.u.)
15,TGTGCAATGTCATCAATTTATGTATTGTGTGTACCCTATCCGGAGTCACCTAGTGCAG,4340 fluorescence intensity (a.u.)
16,GATATCGTACGACAAGGCTTGGAGGGCAAAACAGAAAGCACGGAGTCACCTAGTGCAG,24200 fluorescence intensity (a.u.)
17,GACAAATTATTAAACTTGAACAAAATCAGTGGTACCAAATCGGAGTCACCTAGTGCAG,9910 fluorescence intensity (a.u.)
18,GGCTAATATACTGGATTAATTCATGTTTGCTACTAGCCCCCGGAGTCACCTAGTGCAG,11000 fluorescence intensity (a.u.)
19,CACTGACAGCCTAGCTAACTGGGAATAGCTAGGCGTACTTCGGAGTCACCTAGTGCAG,5500 fluorescence intensity (a.u.)
20,CTAATTTACTCATCATAGGGACAACAAAACATCTGGGTTACGGAGTCACCTAGTGCAG,7840 fluorescence intensity (a.u.)
21,AAAATTTGTCAATAAATATATAGGCAGTCCCGGTCCGTTCCGGAGTCACCTAGTGCAG,4490 fluorescence intensity (a.u.)

row,Sequence,binding signal
1,GGCGATTGACATGTGGGCCACGTCCTAACCTTGGGCCCACCGGAGTCACCTAGTGCAG,20500 fluorescence intensity (a.u.)
2,ATCAGATTAGCAGCAGACCAAAGAATTCTTCAGTATCAAGCGGAGTCACCTAGTGCAG,5140 fluorescence intensity (a.u.)
3,GCACTAAACAAAATGGTCTGATTGAGCCGAACAAGATAACCGGAGTCACCTAGTGCAG,12200 fluorescence intensity (a.u.)
4,CATAAATTACTTTAAATCTAAGCTCCACACTTCATGTGCCCGGAGTCACCTAGTGCAG,39500 fluorescence intensity (a.u.)
5,TGGATGATTGATGGAAGACGATCAGATTTTAGTTGAACCACGGAGTCACCTAGTGCAG,46600 fluorescence intensity (a.u.)
6,CCTGATGTGACGACCTCCCTGAATCCTCCTGATGTATACGCGGAGTCACCTAGTGCAG,15100 fluorescence intensity (a.u.)
7,GCCTCTCTCTCTTCTCTGATTGATTACTACTCCACTACAGCGGAGTCACCTAGTGCAG,25700 fluorescence intensity (a.u.)
8,GATAATTAATCAATGATGAACCTCCTGTAAGAAACTGAAGCGGAGTCACCTAGTGCAG,25400 fluorescence intensity (a.u.)
9,TCTGCAATGATAAGACAATGATTAGAACCATGAAACTCGACGGAGTCACCTAGTGCAG,9950 fluorescence intensity (a.u.)
10,ATACAACTAAATTAAATGGTTGGACTCCTCATGTTGAAGACGGAGTCACCTAGTGCAG,5220 fluorescence intensity (a.u.)
11,GTCATGGCAATCTTAGATAGCCAATCAAAGTGTCTGAGTACGGAGTCACCTAGTGCAG,11100 fluorescence intensity (a.u.)
12,ACTTTAACTATTAATTTATTTTATATTATGTTACCAACGACGGAGTCACCTAGTGCAG,23900 fluorescence intensity (a.u.)
13,ATTTGATGAATCTGTATATTAAATTGTCAATTTGTGTACCCGGAGTCACCTAGTGCAG,19400 fluorescence intensity (a.u.)
14,AATCTGATTTTCTGATTGCTATGGATTGTTTTCACACAAACGGAGTCACCTAGTGCAG,14700 fluorescence intensity (a.u.)
15,GGAATTAATTAATGAATCACGTAGGCTACCTGGGTTGAAGCGGAGTCACCTAGTGCAG,45800 fluorescence intensity (a.u.)
16,TTGTAGATTGTTTAGGGATTGTTGTGTTGTTGTTCATTATCGGAGTCACCTAGTGCAG,15600 fluorescence intensity (a.u.)
17,GTTATATGTGTATGACAGATTGATGTGATGGAAAATATCCCGGAGTCACCTAGTGCAG,9650 fluorescence intensity (a.u.)
18,TATATTTAAATCATTAATATCTTGGTCCAACTCATTTTGGCGGAGTCACCTAGTGCAG,5780 fluorescence intensity (a.u.)
19,CGTAATTAGTAGGTTGATTACTATTTGCTAATCATAAGTGCGGAGTCACCTAGTGCAG,65200 fluorescence intensity (a.u.)
20,GTGAGTAAATAAAATCATTTATTGAAGATTACAATTGTATCGGAGTCACCTAGTGCAG,6590 fluorescence intensity (a.u.)
21,GCCATAAAATTAGGAACAAAATTATGTAGCTCTGTGATGGCGGAGTCACCTAGTGCAG,6670 fluorescence intensity (a.u.)
